The list shows a part of the results.
The compounds below were run on S. aureus RN4220 (assay: growth inhibition call (relative growth <= 0.2)). Conditions: 50 µM.

Growth inhibition call, inactive:
C[C@H]1CN([C@@H](C)CO)C(=O)c2cc(NC(=O)CCCN(C)C)ccc2O[C@@H]1CN(C)C(=O)NC1CCCCC1
CC(/C=C/C(=O)NO)=C\c1ccccc1OCc1cn(-c2ccc(C[C@H]3C(=O)O[C@@H](Cc4ccccc4)[C@H]4[C@@H]5C=CCCC=C5CN43)cc2)nn1
COc1ccc(C#Cc2cnc3c(c2)C(=O)N([C@H](C)CO)C[C@H](C)[C@@H](CN(C)C(=O)CN(C)C)O3)cc1
O=C1N[C@@H](Cc2ccccc2)C(=O)N2[C@@H]1C[C@@H](C(=O)NCc1ccc(F)cc1)[C@H]2c1cccc(OCCO)c1
COc1ccc(S(=O)(=O)Nc2ccc3c(c2)C(=O)N([C@H](C)CO)C[C@@H](C)[C@H](CN(C)C(=O)Nc2c(C)noc2C)O3)cc1
C[C@@H]1CN([C@H](C)CO)C(=O)c2cc(NC(=O)C3CCCCC3)ccc2O[C@@H](C)CCCCO[C@@H]1CN(C)Cc1ccncc1
Cc1ccc(S(=O)(=O)N(C)C[C@@H]2OCCCC[C@H](C)Oc3ccc(NC(=O)CCC(F)(F)F)cc3C(=O)N([C@@H](C)CO)C[C@H]2C)cc1
Cc1cc(C)c(NC(=O)[C@@H](N)Cc2ccccc2)c(Cl)c1
N[C@@H]1CCCN(Cc2ccncc2)[C@H]1c1ccccc1F
CC(C)NC(=O)Nc1ccc2c(c1)CC(=O)N([C@H](C)CO)C[C@H](C)[C@@H](CN(C)C(=O)Nc1ccc3c(c1)OCO3)O2
Cc1ccc(S(=O)(=O)Nc2ccc3c(c2)C(=O)N([C@H](C)CO)C[C@@H](C)[C@@H](CN(C)C(=O)Nc2c(C)noc2C)OCCCC[C@@H](C)O3)cc1

— the antibiotic and cytotoxicity screens of Wong et al. (2023)
